From ChEMBL document CHEMBL4888484, “Replenishing the malaria drug discovery pipeline: Screening and hit evaluation of the MMV Hit Generation Library 1 (HGL1) against asexual blood stage Plasmodium falciparum ,using a nano luciferase reporter read-out” (2022)
About 540 (0.36%) of roughly 150,000 compounds showed an effect of 50% or more. The list shows a part of the results.

Each molecule was assayed on Plasmodium falciparum (assay: Primary screen in NF54 nanoGlo assay, in single point, at 2uM, 72h; a lower Z score goes with more inhibition). Conditions: timepoint 72 hour.
Format: functional, Erythrocyte

SMILES	% Inhibition [%]	Z score
O=C(NCc1ccc2c(c1)OCO2)c1nnc(-c2ccncc2)o1	-2	0.28
O=C(Cn1ccc(=O)cc1)N1CCN(Cc2ccccc2)C(=O)C1	-11	1.49
CN(CCC(C)(C)O)Cc1ccc(C#CCO)s1	-1	0.14
CCCNC(=O)c1ccc(-c2cc(Cl)c3c(c2)C[C@H](CN)O3)s1	-6	0.82
CS(=O)(=O)c1cccc(OCCN2CCC[C@H]2c2ccc[nH]2)c1	-4	0.57
COc1cccc(N2CCN(C3CCN(Cc4cccs4)CC3)CC2)c1	-1	0.12
Cc1nc(CCC(=O)N2CCN(c3ccc(Cl)c(Cl)c3)CC2)n[nH]1	3	-0.42
C[C@H](NCCc1nccn1Cc1ccccc1)c1cccc(O)c1	-4	0.61
CCC[C@H]1CN(C(=O)c2n[nH]c3ccc(OC)cc23)C[C@@H]1NC(C)=O	-4	0.8
CCOc1ccccc1C(=O)NCC(=O)NC[C@H]1CC2c3ccccc3C1c1ccccc12	0	-0.02
CC(=O)N1CCCN(c2nc3c(s2)c(C)nn3-c2ccc(C)cc2)CC1	4	-0.71
OCc1csc(N2CCC[C@@](CO)(CCc3ccccc3)C2)n1	-1	0.23
O=C(NCCc1ccccc1C(F)(F)F)c1cc(CN2CCC[C@H](O)C2)on1	-6	1.18
CC1Cc2ccccc2N1C(=O)C1CCCN(C(N)=O)C1 (stereo not drawn)	-14	2.31
COCC[C@](C)(O)CNC(=O)c1snnc1C	8	-0.9
COc1ccc(CNc2cccc(C(=O)NC3CC3)c2)c(OC)c1	-4	0.4
Cn1ccn2ncc(C(=O)NC[C@H]3CCN(Cc4ccco4)C3)c12	-9	1.27
CC[C@H](NC(=O)Cn1cccnc1=O)c1nccs1	3	-0.43
CC(C)(NS(C)(=O)=O)C(=O)NC[C@H]1CC[C@H](c2ccccc2)O1	-4	0.58
O=C(N[C@H]1CC(=O)N(Cc2cccc3ccccc23)C1)C1CCOCC1	-15	1.32
O=C(O)[C@H]1CC[C@@H](C(=O)NC(Cc2ccccc2)c2ccccc2)C1 (stereo partly drawn)	32	-3.63

SMILES	% Inhibition [%]	Z score
CCCN1CCC(CC(=O)N[C@@H](C)[C@H](O)c2ccc(O)cc2)CC1	-9	1.55
Cc1cccc(CN(Cc2cccc(C)n2)c2ncc(Br)cn2)n1	1	-0.08
CC(C)(CNC(=O)[C@@H]1COCCO1)c1ccc(F)cc1Cl	-7	0.89
CCOC(=O)C(C)NC(=O)C1CCCC(C(=O)NC(C)C(=O)OCC)C1 (stereo not drawn)	-6	1
CC(C)c1nnsc1Cn1ccnc1-c1cc2n(n1)CCCNC2	13	-1.77
NS(=O)(=O)c1ccc(NC(=O)N2CC(Oc3ccccc3)C2)cc1	-3	0.4
CC1CCC(NC(=O)Cn2ccnc2)CC1 (stereo not drawn)	0	0.03
O=C(CCc1cn(-c2ccccc2)nc1-c1ccc2c(c1)OCO2)NC[C@H]1CCCO1	0	0.04
CNC(=O)C1CN(C(=O)c2ccnc(-c3ccco3)c2)C1	15	-1.74
OCCN(CCn1ccnc1)Cc1ccco1	-8	1.03
COCCn1ccc(NC(=O)N2CCC[C@](C)(c3ccccc3)C2)n1	-14	1.79
CC(C)c1cc([C@@H]2CCCN2C(=O)NC2CCCC2)on1	-9	1.26
Cc1ccc(C)c(N2CCN(C(=O)c3cc(C(=O)N4CCN(c5cc(C)ccc5C)CC4)cc(C(=O)N4CCN(c5cc(C)ccc5C)CC4)c3)CC2)c1	-31	3.63
CCOC(=O)C1CCN(Cc2ccccc2)CC1c1ccccc1 (stereo not drawn)	-14	1.21
Cc1ccc(Oc2nc3ccccc3n3c(=O)n(CC(=O)Nc4c(C)cccc4C)nc23)cc1	-4	0.63
c1coc(-c2cc(-c3nc(-c4ccncc4)no3)n[nH]2)c1	-5	0.65
COc1ccc(C(=O)N2CCC[C@@]3(C2)NC(=O)N(Cc2ccc(C)cc2)C3=O)cc1OC	-13	2.28
CNC(=O)C(NCCOC1CCCCO1)C(C)C (stereo not drawn)	-11	2.02
CO[C@H]1C[C@H]2CC(NCc3ccc(Cn4ccnc4)cc3)C[C@H]2C1 (stereo partly drawn)	-7	0.66
CN1CCOC2CN(Cc3ccc(Cl)c(F)c3)CC21 (stereo not drawn)	-10	1.85
Cn1ncc(Cl)c1[C@@H]1CCCCCN1C(=O)c1ccccc1F	-19	1.68

SMILES	% Inhibition [%]	Z score
C[C@H](Nc1ccc2c(c1)OC1(CCCCC1)O2)C(=O)NC(N)=O	-2	0.3
CCN=C(NCc1ccon1)N[C@H]1CCN(c2ccc(F)cc2F)C1	-4	0.48
Cc1ccc2[nH]c(-c3nc(CCN(C)C(=O)c4c(F)cccc4F)no3)cc2c1	-9	1.7
Cc1c(O)cccc1C(=O)N1CCn2nc(C(=O)N3CCN(C)CC3)cc2C1	0	-0.05
C[C@@]1(C(=O)Nc2ccc3c(c2)CCN3)CNCCO1	16	-2.08
Cc1ccc(CCNC(=O)C2CCN(S(=O)(=O)c3ccc4nc5c(c(C(=O)O)c4c3)CCCC5)CC2)cc1	-14	2.12
C[C@@H]1CN(C(=O)c2nnc3ccccc3n2)C(C)(C)C1	-19	2.49
Cc1c(C(=O)NS(=O)(=O)C[C@H]2CCOC2)cccc1-c1ccccn1	-10	1.6
OCc1cc(-c2ccccc2OCc2ccccc2)ccn1	-5	0.85
CC(C)c1ccoc1C(=O)N1CCc2nn[nH]c2C1	-14	1.66
Cc1cnc(C2CCN(Cc3cccn3C)CC2)n1[C@H](C)CO	-6	1.08
O=C(NC1(c2cccc(Cl)c2)CCCC1)c1cn[nH]c1	-8	1.37
CN1CCN(CC(=O)NCCc2ccc(F)cc2)C[C@]12CCNC(=O)CC2	3	-0.5
Cc1c(CN2CCC[C@H]2C(F)(F)F)cnn1CCN1CCCOCC1	0	0.01
CC1(C)Cc2cc(S(=O)(=O)Nc3cn[nH]c3)ccc2O1	-5	0.81
CC[C@@H](CN(C)C)NC(=O)c1coc(COc2ccc3c(c2)OCO3)n1	-3	0.43
CC(NC(=O)c1ccc(S(=O)(=O)NC2CCS(=O)(=O)C2)cc1)c1ccc(F)cc1F (stereo not drawn)	2	-0.35
CN(C)c1nc(CN[C@H]2CCCc3sccc32)cs1	5	-0.72
CCN(CCN(C)C)C(=O)c1cccc(-c2ccc3nccc(N)c3c2)c1	96	-13.62
O=C(O)C[C@@H]1CN(C(=O)c2ccc3c(c2)OCO3)C[C@@H]1c1c[nH]nn1	-3	0.47
Fc1cccc(-c2nccn2Cc2noc(Cc3ccccc3)n2)c1	9	-1.14

SMILES	% Inhibition [%]	Z score
CCN1CCN(Cc2ccc(NC(=O)CCS(=O)(=O)c3ccc4c(c3)CC(=O)N4C)cc2)CC1	7	-0.88
COc1ncc(C(=O)N2C[C@@H](c3ccccc3)CC2(C)C)cn1	0	-0.05
Cc1ocnc1C(=O)NCc1cc2n(n1)CCCN(CC(C)C)C2	4	-0.58
C[C@H]1OCC[C@H]1NCc1noc2c1CC(C)(C)CC2	37	-3.83
CCCc1nc2ncnn2c(O)c1NC(=O)Nc1ccccc1Cl	-8	1.5
O=C(Cc1ccc(F)cc1)NCC1CCN(c2ncnc3[nH]ccc23)CC1	-14	2.01
Cc1cccc(OC2CN(CCn3cnnc3)C2)c1	-12	2.38
C[C@@H](C(=O)N(CC(F)F)c1ccc(F)cc1)n1cncn1	-17	2.3
CN(C(=O)CCc1ccncn1)C1CCN(CC(F)(F)F)CC1	-8	1.21
CCN1CCN(c2c(CN(C(=O)Nc3cccc(Cl)c3)C3CC3)c(C)nn2-c2cccc(F)c2)CC1	1	-0.17
CN1CCN([C@H]2CCOC3(CCN(C(=O)c4cccc(F)c4)CC3)C2)CC1	-7	0.9
Cn1ncnc1C(=O)N1CCC(CC2CCCCC2)CC1	-8	1.17
CN(C(=O)[C@@H]1COc2ccccc2C1)c1cc(C#N)c2ccccc2n1	-12	1.65
Cc1nc(C)c(CC(=O)Nc2cccc(N3C(=O)CC[C@@H]3C)c2)s1	-5	0.69
NC(=O)C1CCN(C(=O)c2cc(N3CCOCC3)ncn2)CC1	-7	1.09
O=C(Cn1cnc2nc(N3CCOCC3)ncc2c1=O)Nc1ccc(Cl)cc1	-10	1.14
CC1(C)CCCC[C@@H]1NC(=O)c1coc(S(N)(=O)=O)c1	-11	1.24
O=C(NCCc1ccccn1)N1CCN(c2nccs2)CC1	-5	0.81
CCN(Cc1ccc(N(C)C)nc1)[C@H]1COC[C@@H]1O	9	-0.97
O=C(CONS(=O)(=O)c1ccc(F)cc1)OCc1ccc(Cl)cc1	-8	1.53
CN1CCN([C@H]2CCN(c3nc4ccccc4s3)C[C@H]2CCCO)CC1	-3	0.4
